In PubChem BioAssay AID1508623 (National Center for Advancing Translational Sciences (NCATS), 2021):
The campaign covered roughly 48,000 compounds. About 450 (0.94%) were called active. About 19% were inconclusive and are not listed. Calls follow the shape of the dose curve; as a rule, active = well fitted inhibition curve with a large enough effect; inconclusive = small, poorly fitted or top-dose-only effect; inactive = no such curve, though single readings can be large or run the other way. The list shows a part of the results.

Experiment: Primary qHTS for Identification of Small Molecule Inhibitors of Huntingtin Promoter Activity; also: nearly all actives have a fitted effect of over 50% in size
Settings: HEK293 HTT promoter firefly luciferase reporter (activity 0% = vehicle and -100% = no light), 24 h; series mostly up to 57.5 µM; activity change, negative = inhibition: at the top concentration
Summary of the method: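 HEK293 luciferase promoter-reporter cells (2,500/well) plated 24 h, then compounds added at up to 57.5 uM final for 24 h at 37 °C. Firefly luminescence by Dual-Glo, normalized to vehicle (0%) and zero RLU (-100%).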
Potency is read from the fitted curve at half-maximal effect.

Row | SMILES | activity change, negative = inhibition | Potency
1 | COc1cc(C(=S)N2CCOCC2)ccc1O | inactive: -5.9% | –
2 | COc1ccc(S(=O)(=O)N2Cc3ccccc3CC2C(=O)Nc2cccc(C)c2)cc1OC (stereo unspecified) | inactive: -11.7% [at 11.5 µM] | –
3 | CN(C)c1ccc(CNc2nc(-c3ccco3)nn2S(=O)(=O)c2ccc(Cl)cc2)cc1 | inactive: 38.2% | –
4 | CC1(C)S[C@H]2[C@H](NC(=O)[C@@H](N)c3ccc(O)cc3)C(=O)N2[C@@H]1C(=O)O | inactive: 1.58% | –
5 | CCc1cccc(C)c1NC(=O)C1CCCN(S(=O)(=O)c2cccc3nsnc23)C1 (stereo unspecified) | inactive: -20.2% | –
6 | CCN(C(=O)CSc1nnc(-c2ccc(Cl)cc2)o1)c1ccccc1 | inactive: 0.972% | –
7 | COc1ccc(/C=N/NC(=O)c2ccncc2)cc1OC | inactive: 7.19% | –
8 | Cc1ccc2nc(N3CCN(C(=O)C4COc5ccccc5O4)CC3)sc2c1 (stereo unspecified) | inactive: 19.7% | –
9 | Cc1ccnc(NS(=O)(=O)c2ccc(NC(=O)c3cc(=O)c4ccc(C)c(C)c4o3)cc2)n1 | inactive: -11.1% | –
10 | COc1ccc(-c2nc3ccccc3o2)cc1NC(=O)c1ccc(N2CCC(C)CC2)c([N+](=O)[O-])c1 | inactive: 48.2% | –
11 | CCOC(=O)c1sc(NC(=O)c2nc(SCC)ncc2Cl)c(C(=O)OCC)c1C | inactive: 0.695% | –
12 | CN(C)CCNC(=O)Cc1ccc(NC(=O)N2CCCCc3ccccc32)cc1 | inactive: -6.01% | –
13 | Cc1ccc(C(=O)c2cn(Cc3ccc(F)cc3)c3nc(C)ccc3c2=O)cc1 | inactive: -26.8% | –
14 | CCOC(=O)c1cc(-c2ccc(C)cc2)n(CC(=O)Nc2cccc(C(C)=O)c2)c1C | inactive: -11% | –
15 | COCCCn1c(=N)c(S(=O)(=O)c2ccccc2)cc2c(=O)n3cccc(C)c3nc21 | inactive: 3.62% | –
16 | CC1(C)CC(=O)c2cc(C(=O)Nc3ccc(Br)cc3)c(=O)n(-c3ccc(Cl)cc3)c2C1 | inactive: -9.04% | –
17 | COc1ccccc1N1CCN(C(=O)CCSCc2ccccc2F)CC1 | inactive: 22.3% | –
18 | Cc1oc(-c2ccccc2F)nc1Cn1c(SCc2ccccc2F)nc2ccncc21 | inactive: -19.2% | –
19 | COCCOc1nc(-c2ccc(Cl)c(Cl)c2)n(-c2ccc(NC(=O)CCl)cc2)n1 | inactive: -19.6% | –
20 | CCn1cc2nc(SCc3cc(C)ccc3C)n(Cc3ccc(C)cc3)c(=O)c2n1 | inactive: -12.2% | –
21 | Cc1ccccc1OCc1nc2c3cnn(-c4ccccc4Br)c3ncn2n1 | inactive: 13.1% | –
22 | COc1ccc(Nc2oc(/C=C/c3ccc(F)cc3)nc2C#N)cc1 | inactive: 15% | –
23 | Cc1ccc(C2c3cccn3CCN2S(=O)(=O)c2ccc([N+](=O)[O-])cc2)cc1 (stereo unspecified) | inactive: -16.4% | –
24 | COc1cccc(CNC(=O)CSc2nc(=O)[nH]c3c2CCCC3)c1 | inactive: -8.02% | –

Row | SMILES | activity change, negative = inhibition | Potency
25 | Oc1c(C(c2ccc(Cl)cc2Cl)N2CCOCC2)sc2nc(-c3ccco3)nn12 (stereo unspecified) | inactive: -10.4% | –
26 | CC(=O)N[C@@H](Cc1ccc(O)cc1)C(=O)O | inactive: -2% | –
27 | CCc1ccc(NC(=O)Cn2c(=O)c(-c3ccccc3NC(C)=O)nc3ccccc32)cc1 | inactive: -16% | –
28 | OC[C@@H](O)[C@@H](O)[C@H](O)[C@H](O)CO | inactive: 1.66% | –
29 | CCOc1ccc(S(=O)(=O)N(CC(=O)NCCSCc2ccc(C)cc2)c2ccccc2)cc1 | inactive: -11.4% | –
30 | CCn1ccc2cc(S(=O)(=O)N3CCCN(C(=O)Nc4ccccc4C(F)(F)F)CC3)ccc21 | inactive: -28% | –
31 | Cc1ccc2c(=O)cc(C(=O)Nc3nnc(CC(C)C)s3)oc2c1C | inactive: 8.15% | –
32 | O=C(CC1N=C2c3ccccc3N=C(SCC(=O)Nc3cccc(Cl)c3)N2C1=O)NCc1cccs1 (stereo unspecified) | inactive: -11.3% | –
33 | CC1CCN(S(=O)(=O)c2ccc(N3CCCCS3(=O)=O)cc2)CC1 | inactive: -42.5% | –
34 | COc1ccc(CCNC(=O)Cn2cc(S(=O)(=O)Cc3ccccc3F)c3ccccc32)cc1OC | inactive: -9.35% | –
35 | Cc1cccc(Cn2c(=O)n(CCC(=O)NCc3ccc4c(c3)OCO4)c(=O)c3sccc32)c1 | inactive: -10% | –
36 | Cc1ccc(C)n1-c1nnc(N2CCC(C(=O)Nc3ccccc3Br)CC2)s1 | inactive: -20.5% | –
37 | COc1ccc2c(c1)Cc1sc(NC(=O)c3ccccc3Br)nc1-2 | inactive: -6.85% | –
38 | CCn1c(SCC(=O)Nc2ccc(C)cc2Br)nnc1-c1nonc1NC(C)=O | inactive: -26.9% | –
39 | CCc1ccc(NC(=O)c2ccc3c(c2)N(Cc2ccc(C)cc2)CCS3)cc1 | inactive: 19.4% | –
40 | CCc1ccccc1N(C)C(=O)C1CCCN(c2ncnc3onc(-c4ccc(F)cc4)c23)C1 (stereo unspecified) | inactive: -5.25% | –
41 | Cc1ccc(OCCn2c(CNc3cccc(C)c3)nc3ccccc32)cc1 | inactive: -26.1% | –
42 | CCCN1CCc2nc(N3CCN(CC)CC3)ncc2C1 | inactive: -11.3% | –
43 | CCOc1cccc(C(=O)Nc2c(C(=O)c3ccc(OC)cc3)oc3ccccc23)c1 | inactive: 3.04% | –
44 | COc1ccc(N2Cc3cccc(C(=O)Nc4ccc(C(C)C)cc4)c3C2=O)cc1 | inactive: 0.472% | –
45 | CCCCOC(=O)c1ccc(NC(=O)c2cc(-c3ccccc3)on2)cc1 | inactive: -4.58% | –
46 | CC(=O)c1ccc(C(=O)N(CCCN(C)C)c2nc3c(C)c(C)ccc3s2)cc1 | inactive: -19.7% | –
47 | CS(=O)(=O)NCC(c1ccco1)N1CCN(c2ccccc2)CC1 (stereo unspecified) | inactive: -5.66% | –
48 | C=CCc1ccc(O)c(OC)c1 | inactive: 9.78% | –

Row | SMILES | activity change, negative = inhibition | Potency
49 | Cc1ccc(NC(=O)c2sc(-n3nc(C)c(CCC(C)C)c3C)nc2C)cc1C | inactive: -5.86% | –
50 | CC1=C(C(=O)Nc2cccnc2)C(c2ccc(F)cc2)n2nc(SCc3ccccc3F)nc2N1 (stereo unspecified) | inactive: -4.48% | –
51 | CCOC(=O)c1cnc2c(C)c(Cl)ccc2c1Nc1ccc(C)cc1C | inactive: -7.24% | –
52 | CCN(C(=O)c1cc2c(Cl)nc3ccccc3c2s1)c1cccc(Cl)c1 | inactive: 0.321% | –
53 | COc1cc(NC(=O)CN(C)S(=O)(=O)c2ccc3[nH]c4c(c3c2)CCCC4)cc(OC)c1OC | inactive: -0.0394% | –
54 | O=C(NC1CCCC1)c1ccc(CSc2nc3ccncc3n2Cc2ccccc2F)cc1 | inactive: -4.37% | –
55 | CCOC(=O)C1CCCN(C(=O)C2CCN(c3nnc(C)c4c(C)n(-c5ccccc5)nc34)CC2)C1 (stereo unspecified) | inactive: -11.9% | –
56 | COc1ccccc1C(=O)NCc1ccc2c(c1)CCN2C(=O)c1ccncc1 | inactive: -12.4% | –
57 | Cc1cc(NC(=O)CSc2nc3c([nH]c4ccccc43)c(=O)n2-c2cccc(Cl)c2)no1 | inactive: -17% | –
58 | CCn1cc(C(=O)O)c(=O)c2cc(F)c(N3CCNCC3)nc21 | inactive | –
59 | Cc1ccc(C)c(N2CCN(C(=O)C3CCN(S(=O)(=O)c4cn(C)cn4)CC3)CC2)c1 | inactive: -18.3% | –
60 | CC(=O)OCC(=O)NCCCOc1cccc(CN2CCCCC2)c1 | inactive: 3.09% | –
61 | CCOC(=O)Cn1c(=O)oc2cc(S(=O)(=O)Nc3cc(OC)cc(OC)c3)ccc21 | inactive: -18.6% | –
62 | COc1ccccc1C(=O)NCc1ccc2c(c1)CCN2C(=O)c1cccc(C)c1 | inactive: -28.8% | –
63 | COc1ccc(N2CCN(C(=O)C3CCN(S(=O)(=O)c4cnc[nH]4)CC3)CC2)cc1 | inactive: -15.8% | –
64 | COC(=O)C1=C(C)NC(COC(N)=O)=C(C(=O)OC(C)C)C1c1cccc(Cl)c1Cl (stereo unspecified) | inactive: -16.7% | –
65 | CN1CCN(C(c2ccc(F)cc2)c2sc3nc(-c4ccco4)nn3c2O)CC1 (stereo unspecified) | inactive: 33.8% | –
66 | O=C(Nc1ccccc1F)C(Cc1ccccc1)n1cccc1 (stereo unspecified) | inactive: -0.538% | –
67 | COc1ccc(-c2c3c(=O)n(C)c(=O)n(C)c3c3c(-c4ccccc4)nc4ccccc4n23)cc1 | inactive: -7.9% [at 11.5 µM] | –
68 | CNC(=O)c1cc2c(n(-c3ccc(C)cc3)c1=O)CC(C)(C)CC2=O | inactive: 0.745% | –
69 | COc1cccc(C(=O)Nc2ccc3oc(-c4ccc5ccccc5c4)nc3c2)c1 | inactive: 20% | –
70 | COc1cc(OC)cc(-c2nc3nc(C)c(CCC(=O)Nc4ccc(Cl)cc4)c(C)n3n2)c1 | inactive: -21.5% | –
71 | COC(=O)c1sccc1S(=O)(=O)N1CCN(c2ccccc2)CC1 | inactive: -12% | –
72 | CCOc1ccc(CCNC(=O)CCc2c(C)nc3c4c(C)cc(C)nc4nn3c2C)cc1 | inactive: -8.37% | –

Row | SMILES | activity change, negative = inhibition | Potency
73 | Cc1ccc2[nH]c(=O)c3cc(C(=O)N4CCN(c5ccccc5)CC4)sc3c2c1 | inactive: -5.11% | –
74 | COc1cccc(NC(=O)NCc2ccc3c(c2)CCN3C(=O)c2ccccc2)c1 | inactive: -13.8% | –
75 | Cc1cccc(C(=O)Nc2sc3c(c2C(=O)NCc2ccco2)CCCC3)c1 | inactive: 22.2% | –
76 | CCN(CC)S(=O)(=O)c1ccc2c(c1)N(CC(=O)NCCCN1CCN(c3ccccc3F)CC1)C(=O)CO2 | inactive: -3.86% | –
77 | CCc1ccc(NC(=O)c2cc(C(C)=O)n3ccccc23)cc1 | inactive: 27.9% | –
78 | CC(C)c1ccc(C2N3CC4(C)CN2CC(c2ccccc2)(C3)C4=O)cc1 (stereo unspecified) | inactive: -15.9% | –
79 | CCCc1nn2c(=O)cc(COC(=O)c3cccc(NC(=O)COc4ccc(F)cc4)c3)nc2s1 | inactive: 1.75% | –
80 | CCOC(=O)c1scc(-c2ccccc2)c1S(=O)(=O)Nc1ccccc1F | inactive: -26.3% | –
81 | Clc1cccc(N2CCN(c3ncnc4c3nc3n4CCCCC3)CC2)c1 | – | active: 10 µM
82 | Cc1nc(-c2ccc(Cl)cc2)sc1CCNC(=O)C(=O)Nc1ccc(F)cc1F | inactive: -5.87% | –
83 | Cc1cc(C)c(Cn2c3ccccc3c3cnn(CC(=O)NC4CCC(C)CC4)c(=O)c32)c(C)c1 (stereo unspecified) | inactive: -25.4% | –
84 | O=C(O)c1cc(NC2(c3ccccc3)C(=O)c3ccccc3C2=O)ccc1Cl | inactive: -2.92% | –
85 | CCc1ccc(NC(=O)CN2CCN(Cc3ccccc3)S2(=O)=O)cc1 | inactive: -13.6% | –
86 | Cc1oc2c(c(C)cc3oc(=O)c(CC(=O)NCCc4ccccc4F)c(C)c32)c1C | inactive: -2.91% | –
87 | Cc1ccc(Cn2c(C(=O)O)c(CNCc3ccccc3Cl)c3ccc(C)cc32)cc1 | inactive: -20.1% | –
88 | Cc1ccccc1-n1c(SCC(=O)Nc2ccc(Cl)cc2F)nnc1-c1cc2occc2n1C | inactive: -16.3% | –
89 | Cc1cccc(NC(=O)CCCn2c(C)c3cnn(-c4ccccc4)c(=O)c3c2C)c1C | inactive: -17.2% | –
90 | CCOc1ccccc1CNS(=O)(=O)c1ccc2c(c1)CCCN2C(C)=O | inactive: -26.7% | –
91 | O=C(Cn1ccn(-c2ccc(F)c(F)c2)c(=O)c1=O)Nc1ccccc1F | inactive: -7.33% | –
92 | COc1cccc(NC(=O)CSc2nc3c(oc4ccccc43)c(=O)n2Cc2ccco2)c1 | inactive: -28.7% | –
93 | O=C(CCSc1nc(-c2ccco2)cc(C(F)(F)F)n1)Nc1cccc(O)c1 | inactive: -26.6% | –
94 | O=C(Nc1ccc2oc(-c3cccnc3)nc2c1)c1cccc(Br)c1 | inactive: -6.77% | –
95 | Cc1ccc(N(CC(=O)NCCc2ccc(Cl)cc2)S(=O)(=O)N(C)C)cc1 | inactive: -28.1% | –
96 | CC(C)CCNC(=O)CCCN1C(=O)c2ccccc2Sc2ncccc21 | inactive: -17.3% | –
